These results are taken from ChEMBL document CHEMBL4888484, “Replenishing the malaria drug discovery pipeline: Screening and hit evaluation of the MMV Hit Generation Library 1 (HGL1) against asexual blood stage Plasmodium falciparum ,using a nano luciferase reporter read-out” (2022).

Out of some 150,000 compounds screened, about 540 (0.36%) showed an effect of 50% or more. Some of the results follow.

As a reminder, the % Inhibition is the relative decrease from the control value, in per cent.

The test relates to Plasmodium falciparum. The test is described as follows: Primary screen in NF54 nanoGlo assay, in single point, at 2uM, 72h; a lower Z score goes with more inhibition. In kind it is functional, Erythrocyte. As to conditions: timepoint 72 hour.
Turning to `CO[C@@]12CC[C@H](O)C[C@@H]1N(C(=O)c1nccn1C)CC2`, the “% Inhibition” value is listed as -15% and the Z score was found to be 1.99.
The matching figures for `CCCCn1c(N)c(N(CCOC)C(=O)c2cc(-c3ccc(OC)cc3)nc3ccccc23)c(=O)[nH]c1=O`: -6% and 0.7.
The matching figures for `CC(C)c1nnc2c3ccccc3nc(N3CCN(C(=O)c4ccc(Cl)cc4)[C@@H](C)C3)n12`: -1% and 0.12.
Take `CC(C)c1noc(NC(=O)N[C@H]2CCN(CC(F)F)C2)n1`: the “% Inhibition” value is -5% and the Z score worked out at 0.98.
Regarding `C[C@@H](COC(=O)c1ccc2nncn2c1)COc1ccccc1`, the “% Inhibition” value is -9% and the Z score is recorded as 1.56.
Turning to `O=C1C[C@@H](c2ccccc2)N(C(=O)Cc2cccc(O)c2)CCN1`, the “% Inhibition” value is -9% and the Z score amounted to 1.05.
Consider `CN(Cc1ccsc1)C(=O)c1ccc2nc(C3CCCCC3)oc2c1`, for which the “% Inhibition” value was -13% and the Z score is 1.58.
As for `COc1ccccc1-c1cc(C(=O)NC2CCN(Cc3ccccc3)CC2)nc2cc(C(C)(C)C)nn12`, the “% Inhibition” value is -8% and the Z score is 0.88.
As to `Cc1cc(Br)oc1C(=O)N1CCN(c2oc(C3CC3)nc2C#N)CC1`, the “% Inhibition” value is -10% and the Z score is given as 1.95.
Regarding `COCCN(CC(=O)N1CCc2sccc2[C@@H]1COc1cccc(F)c1)C(=O)C(C)C`, the “% Inhibition” value is listed as -19% and the Z score worked out at 3.67.
Taken in the same sequence, the figures for `CC(C)CCN[C@@H]1C[C@@H](O)[C@H](CO)[C@H]1Cc1ccnc(-c2ccccc2F)n1` were 34% and -3.85.
With `COCc1nc([C@@H]2CCCN3CCCC[C@H]23)n(CC(C)(C)O)n1`, the “% Inhibition” value is given as -30% and the Z score is reported as 2.67.
For the compound `CN(C)S(=O)(=O)N1C[C@H]2CC[C@@H](C1)N(Cc1cc3ccccc3o1)C2`, the “% Inhibition” value is recorded as 4% and the Z score is given as -0.54.
Turning to `Cc1nc(N(C)C[C@H](C)C(=O)O)c(Cl)cc1C#N`, the “% Inhibition” value is -10% and the Z score came out at 0.98.
As for `FC(F)(F)c1ccc(Oc2ccc(-c3ccccc3)cc2)nc1`, the “% Inhibition” value was -3% and the Z score stood at 0.38.
In the case of `COc1cc(F)ccc1CN[C@@H](C)c1n[nH]c(C)n1`, the “% Inhibition” value is -11% and the Z score is given as 1.34.
Take `CN(Cc1ccccc1)S(=O)(=O)c1cc(C(=O)N2CCCC2)cs1`: the “% Inhibition” value is given as -10% and the Z score was 0.99.
In the case of `NC(=O)c1cncc(N2CCC[C@H]2c2ccccc2Br)n1`, the “% Inhibition” value came out at 0% and the Z score is -0.04.
The matching figures for `Cc1ccc(NC(=O)CN2C(c3ccccc3)=C[C@@H](c3ccc(C)cc3)n3nnnc32)cc1`: -20% and 1.96.
Consider `COc1ccc(C(=O)N2CCn3nc(Cc4ccccc4)cc3C2)cn1`, for which the “% Inhibition” value is 2% and the Z score is reported as -0.37.
Take `COc1ccc(NCC(=O)Nc2ncc(Cc3cccc4ccccc34)s2)cc1`: the “% Inhibition” value is -3% and the Z score is 0.34.
For `O=C(CN1C(=O)COc2ccc(Cl)cc21)Nc1cccc(-c2nnco2)c1`, the “% Inhibition” value is recorded as -14% and the Z score came out at 1.88.
Taken in the same sequence, the figures for `Cc1c(CCNC(=O)N2CCC(C)CC(C)C2)cnn1C` (centres undefined) were 4% and -0.5.
On to `CC(NC(=O)C1(O)CCCC1)C1COc2ccccc21` (centres undefined), for which the “% Inhibition” value was -2% and the Z score is 0.27.
Taken in the same sequence, the figures for `Cc1cnc(CNC(=O)C2Cc3ccccc3C2)o1` were -5% and 0.94.
For the compound `Cc1nc(NCc2ccc(F)cc2)nc2c1C(=O)c1ccccc1-2`, the “% Inhibition” value is on record as -6% and the Z score was 0.85.
As for `CCCc1cc(C(=O)NC(C)(C)CCC(=O)NC)n[nH]1`, the “% Inhibition” value is 2% and the Z score is -0.47.
For the compound `Cc1nnsc1CNC(=O)[C@H]1CCN(c2ccc(C(F)(F)F)cn2)C1`, the “% Inhibition” value is reported as -30% and the Z score is reported as 2.67.
As for `C[C@@H](CN(C)C(=O)NCc1nnc2ccccn12)c1nccs1`, the “% Inhibition” value is on record as -2% and the Z score was 0.3.
With `Cc1cccc(N(C)S(=O)(=O)c2cnn(C3CCC3)c2)n1`, the “% Inhibition” value is -6% and the Z score was determined as 1.11.
As to `CC[C@@H](CO)NC(=O)N[C@H]1C[C@H](c2ccccc2C)C1`, the “% Inhibition” value is -2% and the Z score is given as 0.38.
Taken in the same sequence, the figures for `O=C(NCC1CCCCC1O)C(=O)Nc1cccc2c1CCCC2` (centres undefined) were -5% and 0.46.
With `C=CCn1cc(CNCCCC(C)(C)CO)c(C)n1`, the “% Inhibition” value is -9% and the Z score came to 0.87.
Take `CC(C)(C)n1ncnc1NC(=O)Cn1cccn1`: the “% Inhibition” value is -1% and the Z score is listed as 0.13.
Take `Cc1ccc(Nc2nc(C)c(C(=O)NCc3ccccn3)s2)c(C)c1`: the “% Inhibition” value came to 34% and the Z score is -3.87.
On to `O=C(Nc1ncc(Cc2ccc(Cl)cc2)s1)c1ccc2c(c1)OCCO2`, for which the “% Inhibition” value is 30% and the Z score was -3.39.
Taken in the same sequence, the figures for `Cc1ccccc1[C@@H](NCc1nnc(C2CC2)n1C)C(C)(C)C` were -6% and 0.93.
The matching figures for `Cc1occc1C(=O)NC1CCN(Cc2cnc(C(C)C)s2)CC1`: 29% and -3.24.
On to `CC(C)C1OCCCC1CNC(=O)CN1CCc2ccccc2C1=O` (centres undefined), for which the “% Inhibition” value amounted to 2% and the Z score is listed as -0.34.
For `COc1ccc(C)cc1NC(=O)N1CC[C@H](CN2CCCCC2)C1`, the “% Inhibition” value is -14% and the Z score is given as 1.54.
As to `Cc1cc(C)cc(CN2CCN(C(=O)Cn3nnnc3CN3CCCC3)CC2=O)c1`, the “% Inhibition” value was -4% and the Z score is 0.39.
For `CCS(=O)(=O)NCC(c1ccco1)c1ccco1`, the “% Inhibition” value was -20% and the Z score came to 2.9.
